# Inconclusive results, whose numbers are uncertain, are shown with a selection of clear calls. Potencies of inconclusive entries are left out as doubtful fits. The source made the active and inactive calls. Calls come from the whole dose curve; as a rule, active = well fitted curve in the direction sought with a large enough effect; inconclusive = small, poorly fitted or top-dose-only effect, or another doubt; inactive = no such curve, though single readings can be large; an effect the other way counts as inactive or inconclusive.
# Experiments:
# [1] = biological target: Rap guanine nucleotide exchange factor 3 (Homo sapiens) (UniProt O95398); test: Confirmatory qHTS for antagonist of cAMP-regulated guanine nucleotide exchange factor 3 (EPAC1) (AID 1645880); conditions: EPAC1 Rap1B-BODIPY-GDP exchange, fluorescence; activity, negative = inhibition: at 115 µM (top of the series); note: nearly all actives have a fitted effect of over 55% in size;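 for activity, negative = inhibition: plate controls were DMSO only for no effect and full effect of the ATA control for full effect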
# Summary of the method: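 Nucleotide exchange uses 100 nM EPAC1, 250 nM RAP1B-BODIPY-GDP and 50 uM GDP, with compounds in a concentration-titration series. After 5 min at room temperature, fluorescence (480 nm ex/540 nm em) is read every 5 min for 30 min. Data are normalized to control ATA and DMSO.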
# [2] = biological target: Rap guanine nucleotide exchange factor 3 (Homo sapiens) (UniProt O95398); test: Counterscreen qHTS for agonist of cAMP-regulated guanine nucleotide exchange factor 3 (EPAC1) (AID 1645889); conditions: EPAC1 Rap1B-BODIPY-GDP exchange, fluorescence; activation: at 154 µM (top of the series) unless noted; note: nearly all actives have a fitted effect of over 40% in size; for activation: % of control where 0% means no effect
# Summary of the method: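 Rap1B–BODIPY-GDP (250 nM) with 50 uM GDP; compounds pin-transferred to 9.74 nM–152 uM final (activator) or from 7.32 nM upwards (inhibitor). Fluorescence Ex/Em 480/540 nm read at 5 and 30 min, then after adding cAMP or buffer, at room temperature.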
# [3] = biological target: DNA polymerase eta (Homo sapiens) (UniProt Q9Y253); test: qHTS for Inhibitors of Polymerase Eta: Confirmatory Assay for Cherry-picked Compounds (AID 720502); conditions: Pol eta primer extension, TAMRA/BHQ fluorescence, 10 min
# Summary of the method: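 The reaction starts with 50 nM final labeled DNA substrate added to Pol eta (10 nM) that had sat with compound for 15 min. TAMRA emission at 598 nm is read at 0 and 10 min.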
# [4] = biological target: Rap guanine nucleotide exchange factor 4 (Homo sapiens) (UniProt Q8WZA2); test: Confirmatory qHTS for antagonist of cAMP-regulated guanine nucleotide exchange factor 4 (EPAC2) (AID 1645885); conditions: activity change, negative = inhibition: at 12.7 µM (top of the series) unless noted; note: nearly all actives have a fitted effect of over 25% in size
# Potency is the fitted concentration of half-maximal effect; tags give direction and shape of the fitted curve.
# UniProt O95398, sequence (O95398 whole entry, looked up): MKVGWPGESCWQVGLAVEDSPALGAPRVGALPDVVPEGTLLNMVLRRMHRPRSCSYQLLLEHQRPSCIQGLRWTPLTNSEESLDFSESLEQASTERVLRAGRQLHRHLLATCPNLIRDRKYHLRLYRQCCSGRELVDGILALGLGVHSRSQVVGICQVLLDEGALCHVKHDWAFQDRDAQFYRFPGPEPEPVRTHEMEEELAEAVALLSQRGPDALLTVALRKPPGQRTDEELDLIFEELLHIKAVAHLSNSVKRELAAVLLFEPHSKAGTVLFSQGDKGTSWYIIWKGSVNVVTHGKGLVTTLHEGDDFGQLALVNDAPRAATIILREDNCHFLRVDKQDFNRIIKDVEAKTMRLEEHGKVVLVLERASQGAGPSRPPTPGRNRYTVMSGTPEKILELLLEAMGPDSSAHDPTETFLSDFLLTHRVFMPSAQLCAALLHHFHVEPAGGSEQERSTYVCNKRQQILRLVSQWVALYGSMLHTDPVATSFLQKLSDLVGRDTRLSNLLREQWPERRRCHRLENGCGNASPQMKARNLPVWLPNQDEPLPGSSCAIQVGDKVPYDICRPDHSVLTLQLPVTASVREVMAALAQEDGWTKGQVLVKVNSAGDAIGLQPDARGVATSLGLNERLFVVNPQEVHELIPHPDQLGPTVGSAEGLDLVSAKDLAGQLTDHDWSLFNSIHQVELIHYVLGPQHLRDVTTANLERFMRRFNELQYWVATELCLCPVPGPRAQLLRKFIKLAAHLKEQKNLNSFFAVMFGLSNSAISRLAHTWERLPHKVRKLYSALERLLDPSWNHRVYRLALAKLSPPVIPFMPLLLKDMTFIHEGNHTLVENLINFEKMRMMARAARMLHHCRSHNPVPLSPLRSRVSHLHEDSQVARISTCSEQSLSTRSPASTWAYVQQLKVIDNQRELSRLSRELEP
# UniProt Q8WZA2, sequence (Q8WZA2 whole entry, looked up): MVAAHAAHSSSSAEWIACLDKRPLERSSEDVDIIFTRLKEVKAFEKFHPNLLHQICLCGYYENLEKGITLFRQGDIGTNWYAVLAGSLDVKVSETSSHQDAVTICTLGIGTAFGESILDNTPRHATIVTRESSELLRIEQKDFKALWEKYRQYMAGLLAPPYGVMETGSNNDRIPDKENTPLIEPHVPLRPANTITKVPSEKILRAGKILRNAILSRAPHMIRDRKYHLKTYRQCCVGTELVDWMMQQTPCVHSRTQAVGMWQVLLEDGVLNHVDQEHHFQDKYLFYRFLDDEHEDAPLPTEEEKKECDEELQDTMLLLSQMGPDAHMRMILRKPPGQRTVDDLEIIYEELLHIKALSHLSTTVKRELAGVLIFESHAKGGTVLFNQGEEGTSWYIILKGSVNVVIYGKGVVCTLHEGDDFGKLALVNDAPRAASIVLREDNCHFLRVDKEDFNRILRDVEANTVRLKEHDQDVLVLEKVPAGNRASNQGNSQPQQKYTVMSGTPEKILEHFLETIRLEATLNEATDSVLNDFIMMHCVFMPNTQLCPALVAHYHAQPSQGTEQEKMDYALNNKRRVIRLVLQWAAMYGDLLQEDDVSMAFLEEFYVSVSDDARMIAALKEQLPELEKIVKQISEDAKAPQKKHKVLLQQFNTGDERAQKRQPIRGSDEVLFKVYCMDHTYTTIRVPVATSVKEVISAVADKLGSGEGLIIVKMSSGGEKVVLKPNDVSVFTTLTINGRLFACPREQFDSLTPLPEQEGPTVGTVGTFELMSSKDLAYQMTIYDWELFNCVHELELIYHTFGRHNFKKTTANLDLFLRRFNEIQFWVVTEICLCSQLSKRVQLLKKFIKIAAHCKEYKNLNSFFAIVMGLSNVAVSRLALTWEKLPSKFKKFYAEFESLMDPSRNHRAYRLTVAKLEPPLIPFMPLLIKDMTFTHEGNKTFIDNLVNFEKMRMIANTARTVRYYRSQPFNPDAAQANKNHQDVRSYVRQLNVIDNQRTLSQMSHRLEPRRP
# UniProt Q9Y253, sequence (Q9Y253 whole entry, looked up): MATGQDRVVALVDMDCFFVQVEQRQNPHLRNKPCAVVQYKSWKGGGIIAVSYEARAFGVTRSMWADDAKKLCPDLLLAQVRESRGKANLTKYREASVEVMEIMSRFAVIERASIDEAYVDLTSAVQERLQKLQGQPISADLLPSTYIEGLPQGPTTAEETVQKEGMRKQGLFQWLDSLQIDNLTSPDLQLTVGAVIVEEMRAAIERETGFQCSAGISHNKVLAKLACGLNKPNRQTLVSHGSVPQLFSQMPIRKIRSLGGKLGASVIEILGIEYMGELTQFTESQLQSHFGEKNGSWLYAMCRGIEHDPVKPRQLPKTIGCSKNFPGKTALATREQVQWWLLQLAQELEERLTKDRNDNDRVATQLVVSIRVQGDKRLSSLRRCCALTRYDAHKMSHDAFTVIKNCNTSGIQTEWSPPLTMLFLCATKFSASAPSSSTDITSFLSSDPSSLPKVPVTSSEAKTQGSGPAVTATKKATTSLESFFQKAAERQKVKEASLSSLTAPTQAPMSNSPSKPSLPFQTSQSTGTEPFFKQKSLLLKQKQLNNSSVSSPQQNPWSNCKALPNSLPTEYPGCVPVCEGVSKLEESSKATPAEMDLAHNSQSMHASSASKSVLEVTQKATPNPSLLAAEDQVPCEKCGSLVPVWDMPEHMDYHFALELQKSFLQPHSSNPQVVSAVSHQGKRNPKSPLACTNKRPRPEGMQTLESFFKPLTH
smiles,measurement,setting,value
CC(C)Oc1cc(F)ccc1-c1cc(C(=O)Nc2ccc(C(C)C)cc2)[nH]n1,Potency,[1],"inconclusive [inhibitor, partial curve, poor fit]"
same,Potency,[2],"inconclusive [activator, full curve, poor fit]"
Cc1cc2nc(-c3ccco3)c(Cc3cccc(F)c3)n2c(C)c1Br,Potency,[1],"inconclusive [inhibitor, full curve]"
same,activation,[2],inactive: 10.5% [at 30.8 µM]
O=C(O)CN1C(=O)/C(=C\c2cc(Br)ccc2OCc2ccc([N+](=O)[O-])cc2)SC1=S,Potency,[3],"inconclusive [inhibitor, single point]"
same,Potency,[1],active: 30.1 µM
same,Potency,[4],"inconclusive [inhibitor, full curve]"
Cc1cc(C)nc(NS(=O)(=O)c2ccc(NC(=O)CN3C(=O)S/C(=C\c4ccccc4)C3=O)cc2)n1,Potency,[1],"inconclusive [inhibitor, partial curve]"
same,Potency,[2],"inconclusive [activator, single point]"
Nc1c(C(=O)Nc2ccc3c(c2)OCCO3)nnn1Cc1cccc(Br)c1,Potency,[1],inactive
same,Potency,[2],"inconclusive [activator, partial curve, poor fit]"
Cc1cc(C)n(Cc2ccc(C(=O)N/N=C/c3ccc(-c4ccc([N+](=O)[O-])cc4)o3)o2)n1,Potency,[3],active: 42.6 µM
same,Potency,[1],active: 47.8 µM
same,Potency,[4],"inconclusive [inhibitor, single point]"
COc1cccc(C(=O)Nc2nnc(S(=O)(=O)Nc3cccc(C)c3)s2)c1,Potency,[1],"inconclusive [inhibitor, partial curve]"
same,Potency,[2],inactive
